The other results are listed elsewhere or left out. At the low end of the ranking the order means little.
What follows are sequences tested against SIX1-Q177R homeodomain (UniProt Q15475) (assay: universal protein binding microarray). Conditions: Universal all-10-mer PBM (8x60K, AMADID 030236), 300 nM GST-tagged protein, Alexa Fluor 488 anti-GST; buffer, salt, pH and temperature not stated; high values mean tight binding; most listed sequences are background and not binding sites; double strand, one strand shown.
For CTTCGGGA, the binding signal was -0.0649 E-score.
For ACCGACGA, the binding signal was 0.0311 E-score.
In the case of CAATGTAG, the binding signal was 0.0714 E-score.
CTGTAAGA was tested, and the binding signal was 0.065 E-score.
Sequence CCTATGGA has a binding signal of 0.0385 E-score.
CTGTTGTA was tested, and the binding signal was -0.167 E-score.
Sequence CCCGATCG has a binding signal of 0.076 E-score.
AGCGGCTC gave a binding signal of -0.0445 E-score.
CACAACAG was tested, and the binding signal was -0.121 E-score.
AGTCCAGA was tested, and the binding signal was -0.163 E-score.
In the case of CACTTAGA, the binding signal was 0.128 E-score.
Work on AGAGCGCT yielded a binding signal of -0.247 E-score.
Sequence GCGCGCGA has a binding signal of -0.0938 E-score.
CGCCATTC gave a binding signal of -0.0918 E-score.
TCCAGAAA was tested, and the binding signal was 0.0258 E-score.
Work on CCAAACGC yielded a binding signal of -0.064 E-score.
CGACCCGC was tested, and the binding signal was 0.0842 E-score.
In the case of TAATAAAA, the binding signal was -0.1 E-score.
In the case of ATAGCAGC, the binding signal was -0.139 E-score.
In the case of TAATGCCA, the binding signal was -0.102 E-score.
In the case of CAACGGCA, the binding signal was -0.0641 E-score.
Sequence ACTAGGAC has a binding signal of -0.0451 E-score.
AAACTCGA gave a binding signal of -0.0959 E-score.
In the case of GCCTGTCC, the binding signal was -0.141 E-score.
Work on AGACGCCG yielded a binding signal of -0.0368 E-score.
GAAATTCC gave a binding signal of -0.27 E-score.
AGATGAAG was tested, and the binding signal was -0.133 E-score.
For ACGCCAAA, the binding signal was 0.03 E-score.
Work on AGGGCAAT yielded a binding signal of -0.228 E-score.
CGCCGGGC was tested, and the binding signal was 0.0211 E-score.
GATGGCAA showed a binding signal of -0.184 E-score.
Work on GCATGTAA yielded a binding signal of -0.267 E-score.
With GTGGTCTA the binding signal was -0.24 E-score.
With AGCTCTTG the binding signal was 0.0292 E-score.
Work on ATCTTCTC yielded a binding signal of -0.26 E-score.
AAGTGAAA showed a binding signal of -0.211 E-score.
Sequence AAACCATG has a binding signal of -0.0648 E-score.
In the case of ACGACGAG, the binding signal was 0.0334 E-score.
With CATACCTA the binding signal was 0.118 E-score.
Sequence CACACGTA has a binding signal of 0.262 E-score.
In the case of GAACTCCA, the binding signal was 0.0448 E-score.
Work on CCTGTCGC yielded a binding signal of -0.046 E-score.
ATCATCAT gave a binding signal of -0.109 E-score.
TGTAACAA gave a binding signal of 0.0776 E-score.
In the case of CACGAAGA, the binding signal was 0.183 E-score.
For ATGAGCCG, the binding signal was -0.124 E-score.
In the case of AGTCACTG, the binding signal was -0.0912 E-score.
CGCGTAGA was tested, and the binding signal was -0.028 E-score.
Sequence GGAAGTCC has a binding signal of -0.357 E-score.
TACAGCGA showed a binding signal of -0.0156 E-score.
Sequence ATTACCCG has a binding signal of 0.167 E-score.
For AGACTCCC, the binding signal was -0.0273 E-score.
Sequence TACAGTCA has a binding signal of -0.192 E-score.
For GCCTCGAA, the binding signal was -0.309 E-score.
Sequence ACCTCTTG has a binding signal of 0.119 E-score.
ACGACTTA gave a binding signal of -0.184 E-score.
For ATTGACCA, the binding signal was -0.0287 E-score.
ATGTTACG showed a binding signal of -0.0117 E-score.
In the case of CTGTCCCA, the binding signal was -0.105 E-score.
In the case of CGGAAGCC, the binding signal was 0.011 E-score.
With CAGACGGA the binding signal was -0.136 E-score.
With CTACAAGC the binding signal was 0.0112 E-score.
In the case of GCAGTCAC, the binding signal was 0.0923 E-score.
ATGGCGTC showed a binding signal of 0.0528 E-score.
CAGTCTTC gave a binding signal of -0.263 E-score.
ATGCTACG gave a binding signal of -0.0255 E-score.
TAACTCGA was tested, and the binding signal was 0.0141 E-score.
GAAATTAA gave a binding signal of 0.00983 E-score.
ACCATGAT showed a binding signal of 0.0345 E-score.
Sequence CGTCCAAC has a binding signal of 0.0861 E-score.
Work on AAACCCAT yielded a binding signal of -0.0775 E-score.
With AAGCGAAA the binding signal was -0.286 E-score.
For ACACAAGT, the binding signal was 0.0769 E-score.
TATCCTCA was tested, and the binding signal was 0.0154 E-score.
ACGTTGAG showed a binding signal of 0.0269 E-score.
Work on AGTTTTGC yielded a binding signal of 0.0118 E-score.
Sequence CCAAGACC has a binding signal of -0.087 E-score.
Sequence CTCCTACC has a binding signal of 0.0647 E-score.
ATTAGTAC gave a binding signal of 0.114 E-score.
Sequence AAATAATG has a binding signal of -0.0367 E-score.
In the case of AGTCGCAA, the binding signal was -0.0574 E-score.
With ACTGCCCG the binding signal was 0.219 E-score.
In the case of ATGTACAA, the binding signal was -0.124 E-score.
Work on AAAAGTAT yielded a binding signal of -0.149 E-score.
Sequence CGCCTGAC has a binding signal of 0.105 E-score.
Sequence GTTCATGA has a binding signal of -0.13 E-score.
ATGTACTA was tested, and the binding signal was 0.0231 E-score.
GTACCTTA gave a binding signal of 0.0897 E-score.
CGAGACTC gave a binding signal of 0.0917 E-score.
ACAGAGCG showed a binding signal of -0.271 E-score.
Work on ACAATCAT yielded a binding signal of -0.0218 E-score.
For AAAACTAC, the binding signal was 0.0709 E-score.
AAAAGCGC gave a binding signal of -0.0916 E-score.
AGAGAGCT gave a binding signal of -0.165 E-score.
Work on CTGGCACA yielded a binding signal of 0.218 E-score.
ATTTGAGG was tested, and the binding signal was -0.0894 E-score.
AGGAAGTA gave a binding signal of -0.0689 E-score.
GTGCACAA was tested, and the binding signal was 0.113 E-score.
ACCTCATA was tested, and the binding signal was -0.0279 E-score.
Sequence ATCCATGA has a binding signal of -0.000195 E-score.
ACATCAAA showed a binding signal of -0.0621 E-score.
With CGCCCATA the binding signal was 0.0879 E-score.
ATGCTGGA showed a binding signal of -0.0456 E-score.
For ATTATCCA, the binding signal was 0.00307 E-score.
For ATGCACGC, the binding signal was 0.061 E-score.
Work on TCTGACCA yielded a binding signal of -0.177 E-score.
For GTAAGCAA, the binding signal was -0.211 E-score.
In the case of AAACTCTT, the binding signal was -0.125 E-score.
AGTGTGCA was tested, and the binding signal was 0.185 E-score.
For GACCCCTC, the binding signal was 0.26 E-score.
CAACTCGC was tested, and the binding signal was 0.026 E-score.
For AATATTAA, the binding signal was -0.0587 E-score.
CCCGTCAA was tested, and the binding signal was -0.134 E-score.
GCGGCAAC showed a binding signal of -0.203 E-score.
For CGTAATGA, the binding signal was -0.124 E-score.
Work on AGCTCTCG yielded a binding signal of -0.238 E-score.
TAGTGCCA gave a binding signal of 0.0354 E-score.
CACACGTG gave a binding signal of 0.362 E-score.
Work on ATAACGGG yielded a binding signal of -0.04 E-score.
ATCTCTGC was tested, and the binding signal was -0.0534 E-score.
Sequence AACTTACA has a binding signal of 0.164 E-score.
GTGAACAA gave a binding signal of 0.0192 E-score.
In the case of CAGTTGTA, the binding signal was -0.0984 E-score.
TACGTCAA showed a binding signal of 0.0575 E-score.
GGAAACAC gave a binding signal of 0.374 E-score.
ACTTTCAA was tested, and the binding signal was -0.197 E-score.
GATCTTGC showed a binding signal of -0.116 E-score.
With AGATAGAA the binding signal was -0.112 E-score.
For TGATTGAA, the binding signal was -0.12 E-score.
For AGGAGGAG, the binding signal was 0.0377 E-score.
AGGCGATC showed a binding signal of -0.256 E-score.
With GCTGTGAA the binding signal was -0.105 E-score.
Work on CTACTGTC yielded a binding signal of -0.106 E-score.
Sequence GGCTACAC has a binding signal of 0.424 E-score.
ACGATTCT gave a binding signal of -0.0451 E-score.
TAACTTCA gave a binding signal of -0.0383 E-score.
ACGAAGGC showed a binding signal of -0.279 E-score.
Work on ACGGCCCG yielded a binding signal of 0.118 E-score.
Sequence ATGGATAG has a binding signal of -0.153 E-score.
GGTACGAC showed a binding signal of 0.195 E-score.
ATCAATAA was tested, and the binding signal was -0.112 E-score.
TATCAGAA showed a binding signal of 0.102 E-score.
In the case of CTCAATAC, the binding signal was 0.0952 E-score.
Work on CACTTGAA yielded a binding signal of 0.202 E-score.
Sequence ACGCAATC has a binding signal of 0.0676 E-score.
For ACGCTGGC, the binding signal was 0.0478 E-score.
AATCTTTA showed a binding signal of -0.218 E-score.
For GCATCTAC, the binding signal was 0.0332 E-score.
With AACACTCG the binding signal was 0.337 E-score.
CTCGTACC gave a binding signal of -0.0229 E-score.
Sequence CACTCTAC has a binding signal of 0.291 E-score.
Sequence TCACGACA has a binding signal of 0.14 E-score.
CGGTTCAC gave a binding signal of 0.112 E-score.
ACTGAAGT showed a binding signal of -0.102 E-score.
For CGTACTGC, the binding signal was -0.116 E-score.
ATCTCGTC was tested, and the binding signal was -0.251 E-score.
With ACATCTAT the binding signal was -0.0947 E-score.
In the case of CCGTGTAG, the binding signal was 0.446 E-score.
Work on CACTCGTC yielded a binding signal of 0.0889 E-score.
TAGTCTGA gave a binding signal of -0.0176 E-score.
ATGCAGCA showed a binding signal of -0.0959 E-score.
In the case of ACCTTGAA, the binding signal was 0.14 E-score.
Work on GGAGACCC yielded a binding signal of 0.0168 E-score.
With ATGACCGG the binding signal was -0.115 E-score.
In the case of CGGTGATA, the binding signal was 0.147 E-score.
Sequence TCGATAGA has a binding signal of -0.0795 E-score.
In the case of AACAGCAA, the binding signal was -0.258 E-score.
For CAGGCGCC, the binding signal was -0.185 E-score.
For CTGATCGC, the binding signal was -0.182 E-score.
Work on CCGGGAAC yielded a binding signal of -0.00309 E-score.
In the case of TATGCAAA, the binding signal was -0.0978 E-score.
With ACCGGTAA the binding signal was 0.0185 E-score.

— PMC10668032
